# “And” between values parts separate entries of the source, which are not always exact repeats. Identical values can stand only once. This is one part of the list. Most values come without repeats; read them as rough.
# How the values were obtained:
# [1] = system: hiPSC-derived cardiomyocytes; experiment: time to death of most cells in well after compound addition (days); higher = less cardiotoxic; settings: screen: 1; 10 µM
# [2] = system: hiPSC-derived cardiomyocytes; experiment: time to death of most cells in well after compound addition (days); higher = less cardiotoxic; extreme values may be limits of the assay; settings: 10 µM
SMILES,time to death of most cells in well [1],time to death of most cells in well ([2]; screen: 2),time to death of most cells in well ([2]; screen: 3),time to death of most cells in well ([2]; screen: 4)
Cc1cc(Nc2ncc3c(n2)N(C)C(=O)N(c2cc(NC(=O)c4cccc(C(F)(F)F)c4)ccc2C)C3)n(C)n1,2.5,1.5,3,6.5
COc1cc2ncc(-c3ccccc3)nc2cc1OC [Tyrphostin AG 1296],> 7,> 7,> 7,> 7
CC(C)(C)c1nc(-c2cccc(NS(=O)(=O)c3c(F)cccc3F)c2F)c(-c2ccnc(N)n2)s1,> 7,> 7,> 7,> 7
COc1cc2c(Oc3ccc4[nH]c(C)cc4c3F)ncnc2cc1OCCCN1CCCC1 [Cediranib (AZD2171)],2,1.5,3,1.5
Cc1cc([C@@H](C)Nc2ccccc2C(=O)O)c2nc(N3CCOCC3)cc(=O)n2c1,> 7,5.5,> 7,> 7
Cn1cc(/C=C2\C(=O)Nc3cccnc32)c2ccccc21,> 7,> 7,> 7,> 7
C=CC(=O)Nc1cccc(Sc2nc(Nc3ccc(N4CCN(C)CC4)cc3)ncc2Cl)c1,2,3.5,2.5,6.5
Cc1cnc(-c2cnc(NCCNc3ccc(C#N)cn3)nc2-c2ccc(Cl)cc2Cl)[nH]1,2.5 and 3,> 7 and 5.5,> 7,> 7
CCCNC(=O)Nc1ccc(Oc2ncnc3cc(OC)c(OC)cc23)cc1Cl,> 7,> 7,> 7,> 7
COC(=O)Nc1ccc(-c2nc(N3CCOCC3)c3cnn(C4CCN(C(=O)OC)CC4)c3n2)cc1,6,4.5,> 7,> 7
COc1ccc(-c2nc(N3CCOCC3)c3sc(CN(C)c4ncc(C(=O)NO)cn4)cc3n2)cn1,4.5,3.5,5.5,5
Cc1ccc(Nc2nccc(N(C)c3ccc4c(C)n(C)nc4c3)n2)cc1S(N)(=O)=O,> 7,> 7,> 7,> 7
Nc1nccc(Oc2ccc(NC(=O)c3c[nH]cc(-c4ccc(F)cc4)c3=O)cc2F)c1Cl,–,5,> 7,> 7
CS(=O)(=O)CCNCc1ccc(-c2ccc3ncnc(Nc4ccc(OCc5cccc(F)c5)c(Cl)c4)c3c2)o1,> 7,2.5,> 7,> 7
O=C(Nc1ccc(-c2ccnc(Nc3ccc(N4CCOCC4)cc3)n2)cc1)C1CCCN1 (stereo not drawn),2.5,1.5,3,> 7
Cc1ccc(-n2nc(C(C)(C)C)cc2NC(=O)Nc2ccc(OCCN3CCOCC3)c3ccccc23)cc1 [Doramapimod (BIRB 796)],> 7,> 7,> 7,> 7
CCN(CCO)CCCOc1ccc2c(Nc3cc(CC(=O)Nc4cccc(F)c4)[nH]n3)ncnc2c1 [Barasertib (AZD1152-HQPA)],4,3,> 7,> 7
C=CC(=O)Nc1ccc(CN2C(=O)N(c3cc(OC)cc(OC)c3)Cc3cnc(Nc4ccc(N5CCN(C)CC5)cc4)nc32)cc1,1.5,3,4.5,> 7
Cc1[nH]nc2ccc(-c3cncc(OC[C@@H](N)Cc4ccccc4)c3)cc12,1,2,4.5,> 7
N#CC1(c2ccc(NC(=O)c3cccnc3NCc3ccncc3)cc2)CCCC1 [Apatinib],> 7,6.5,> 7,> 7

SMILES,time to death of most cells in well [1],time to death of most cells in well ([2]; screen: 2),time to death of most cells in well ([2]; screen: 3),time to death of most cells in well ([2]; screen: 4)
Cc1ccc(NC(=O)c2cccc(C(C)(C)C#N)c2)cc1Nc1ccc2ncn(C)c(=O)c2c1,> 7,> 7,> 7,> 7
COc1cc2c(Nc3ccc(NC(=O)c4ccccc4)cc3)ncnc2cc1OCCCN1CCOCC1,> 7,1.5,> 7,> 7
OCCn1cc(-c2cnc3nnn(Cc4ccc5ncccc5c4)c3n2)cn1,> 7,> 7,> 7,> 7
CC(C)(C)c1ccc(S(=O)(=O)/C=C/C#N)cc1,0,1,2.5,0.5
COc1ccc(Cl)cc1NC(=O)Nc1cc(C)nc2ccccc12,> 7,> 7,6.5,> 7
C#Cc1cccc(Nc2ncnc3cc(OC)c(OCCCCCCC(=O)NO)cc23)c1,5,4,6,6
O=C1NC(=O)[C@@H](c2cn3c4c(cccc24)CCC3)[C@@H]1c1c[nH]c2ccccc12 [Tivantinib (ARQ 197)],2,> 7,> 7,> 7
Cc1cnc(NC(=O)Nc2cc(Br)c(C)cc2OC[C@@H]2CNCCO2)cn1,> 7,3,6.5,> 7
"CCCS(=O)(=O)Nc1ccc(F)c(C(=O)c2c[nH]c3ncc(-c4ccc(Cl)cc4)cc23)c1F [Vemurafenib (PLX4032, RG7204)]",> 7,> 7,> 7,> 7
CNC(=O)Nc1ccc(-c2nc(N3CC4CCC(C3)O4)c3cnn(C4CCC5(CC4)OCCO5)c3n2)cc1,> 7,> 7,> 7,> 7
CN(c1ncccc1CNc1nc(Nc2ccc3c(c2)CC(=O)N3)ncc1C(F)(F)F)S(C)(=O)=O,–,> 7 and 2.5,> 7,> 7
CO[C@H]1C[C@@H]2CC[C@@H](C)[C@@](O)(O2)C(=O)C(=O)N2CCCC[C@H]2C(=O)O[C@H]([C@H](C)C[C@@H]2CC[C@@H](O)[C@H](OC)C2)CC(=O)[C@H](C)/C=C(\C)[C@@H](O)[C@@H](OC)C(=O)[C@H](C)C[C@H](C)/C=C/C=C/C=C/1C [Rapamycin (Sirolimus)],3,> 7,> 7,> 7
Cc1cnc(Nc2ccc(F)cc2Cl)nc1-c1c[nH]c(C(=O)NC(CO)c2cccc(Cl)c2)c1 (stereo not drawn),3,2,3,> 7
COc1ncc(-c2cc(-c3ncc(CN4C[C@@H](C)O[C@@H](C)C4)o3)c3cn[nH]c3c2)cc1NS(C)(=O)=O,3.5,> 7,> 7,> 7
CCc1nc(-c2cccc(C)c2)c(-c2ccnc(NC(=O)c3ccccc3)c2)s1,2,2,3,> 7
O=C(NCCO)c1cccc(-c2cc(Nc3ccc(OC(F)(F)F)cc3)ncn2)c1,> 7,3,> 7,> 7
OCCn1cc(-c2ccc3c(c2)CC/C3=N\O)c(-c2ccncc2)n1,> 7,> 7,> 7,> 7
CC(C)CC(=O)Nc1n[nH]c2c1CN(C(=O)C1CCN(C)CC1)C2(C)C,1.5,2,3.5,> 7
NCC(=O)Nc1ccc(-n2nc(C(F)(F)F)cc2-c2ccc3c(ccc4ccccc43)c2)cc1,2,3.5,4,> 7
COc1cc(-c2cc(-c3ccc(N4CCNCC4)cc3)cnc2C)cc(OC)c1OC,6,4.5,> 7,> 7

SMILES,time to death of most cells in well [1],time to death of most cells in well ([2]; screen: 2),time to death of most cells in well ([2]; screen: 3),time to death of most cells in well ([2]; screen: 4)
Cc1cc(C(=O)NOCCO)c(Nc2ccc(I)cc2F)n(C)c1=O,> 7,> 7,> 7,> 7
C=CC(=O)Nc1cccc(Nc2nc(Nc3ccc(Oc4ccnc(C(=O)NC)c4)cc3)ncc2F)c1,> 7,3.5,> 7,> 7
CC(C)CCN1c2nc(Nc3cc(F)c(O)c(F)c3)ncc2N(C)C(=O)C1C (stereo not drawn),> 7,> 7,> 7,> 7
O=c1[nH]nc(Sc2ncc([N+](=O)[O-])s2)n1-c1ccc2c(c1)OCCO2,3,0.5,0.5,0.5
O=C1c2ccc(Nc3ccc(F)cc3F)cc2CCc2ccc(OC[C@H](O)CO)cc21 [Skepinone-L],> 7,> 7,> 7,> 7
Nc1nc(Nc2ccc(S(N)(=O)=O)cc2)nn1C(=O)c1c(F)cccc1F,2.5,1.5,3,> 7
COc1cc2nccc(Oc3ccc(NC(=O)Nc4ccc(F)cc4F)c(F)c3)c2cc1OC,> 7,6,> 7,> 7
O=C1NC(=NCc2cccs2)S/C1=C\c1ccc2ncccc2c1,> 7,> 7,> 7,> 7
CCOc1cc(N2CCC(O)CC2)ccc1Nc1ncc2c(n1)N(C)c1ccccc1C(=O)N2C,6.5,3.5,> 7,> 7
CN1CCN(c2ccc3nc(-c4c(N)c5c(F)cccc5[nH]c4=O)[nH]c3c2)CC1 [Dovitinib (TKI-258) Dilactic Acid],1.5,3.5,> 7,2
CC1(C)CNc2cc(NC(=O)c3cccnc3NCc3ccncc3)ccc21 [Motesanib Diphosphate (AMG-706)],> 7,> 7,> 7,> 7
N#Cc1c(Oc2ccc(F)c(NC(=O)Cc3cccc(C(F)(F)F)c3)c2)ccc2nc(NC(=O)C3CC3)sc12,2,2,3.5,> 7
Oc1ccc(-c2nc(-c3ccc(F)cc3)c(-c3ccncc3)[nH]2)cc1,> 7,1,> 7,> 7
CO[C@@H](C(=O)N1Cc2[nH]nc(NC(=O)c3ccc(N4CCN(C)CC4)cc3)c2C1)c1ccccc1,> 7,3.5,> 7,> 7
C=CC(=O)Nc1ccc2ncnc(Nc3cccc(Br)c3)c2c1,> 7,3,> 7,> 7
O=C(c1ccc(/C=C/c2n[nH]c3ccccc23)cc1)N1CCNCC1,6.5,3.5,> 7,> 7
COc1ccc(F)c(F)c1C(=O)c1cnc(NC2CCN(S(C)(=O)=O)CC2)nc1N,2,2.5,6.5,> 7
CC(C)(C)c1cnc(CSc2cnc(NC(=O)C3CCNCC3)s2)o1,2,1,5.5,> 7
Cc1cc2c(F)c(Oc3ncnn4cc(OC[C@@H](C)O)c(C)c34)ccc2[nH]1,> 7,> 7,> 7,> 7
Cn1cnc2c(F)c(Nc3ccc(Br)cc3Cl)c(C(=O)NOCCO)cc21 [Selumetinib (AZD6244)],> 7,> 7,> 7,> 7
